In patent US20240124563A1 (NANJING ZAIMING PHARMACEUTICAL, published 2024):

B1: NB148-27 VHH-hFc (Fc fusion)
chain: EVQVVESGGGLVQAGASLRLSCASSGRTISPIAMAWFRQAPGKERELVAGLTWTGRTYYSDSVKGRFTISRDNAKNTVYLQMDSLKFEDTAVYFCAAGDNPDRRGSSWSSSSVYEYWGQGTQVTVSS[human IgG1 Fc with changes not written out]
notes: no linker stated
B2: NB148-35 VHH-hFc (Fc fusion)
chain: EVQVVESGGGLVQPGGSLRLSCGVSGSILALNTMRWYRQTPGNQREWVASIYSSGGSTGYADSVKGRFIISRDSAKNMMSLQMNSLKSEDTAVYYCNVQTPLNVYWGQGTQVTVSS[human IgG1 Fc with changes not written out]
notes: no linker stated
B3: NB148-46 VHH-hFc (Fc fusion)
chain: EVQLVESGGGLVQAGGSLRLSCAASGSTFSSYPMGWYRQAPGKQRELVAAISSGGSTNYADSVKGRFTISRDNAKNTVYLQMNSLKPEDTAVYYCNTRSPRVPNDSWGQGTQVTVSS[human IgG1 Fc with changes not written out]
notes: no linker stated

Each binder was assayed against T1, human MSLN-FL-his protein (human, UniProt Q13421 296-580) (assay: ELISA, coated antigen, 1 nM antibody).
T1 construct: also called hMSLN-FL-his; not shown: histidine tag

Row | Binder | OD450 nm [OD450 nm]
1 | B1 | 1.98
2 | B2 | 1.82
3 | B3 | 1.74

These binders were tested against T1, human MSLN-FL-his protein (assay: ELISA, coated antigen, 100 nM antibody).

Row | Binder | OD450 nm [OD450 nm]
4 | B1 | 2.53
5 | B2 | 2.56
6 | B3 | 3.21

What follows are binders tested against T2, human MSLN-R3-his protein (human, UniProt Q13421 487-598) (assay: ELISA, coated antigen, 1 nM antibody).
T2 construct: also called hMSLN-R3-his; not shown: histidine tag

Row | Binder | OD450 nm [OD450 nm]
7 | B1 | 0.05
8 | B2 | 0.05
9 | B3 | 0.05

The binders below were run against T2, human MSLN-R3-his protein (assay: ELISA, coated antigen, 0.01 nM antibody).
T2 sequence (Q13421 495-606): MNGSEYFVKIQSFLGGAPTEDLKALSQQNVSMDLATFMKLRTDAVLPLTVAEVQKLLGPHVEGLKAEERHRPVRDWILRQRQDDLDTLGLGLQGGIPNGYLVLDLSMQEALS

Row | Binder | OD450 nm [OD450 nm]
10 | B1 | 0.05
11 | B2 | 0.05
12 | B3 | 0.05

The binders below were run against T2, human MSLN-R3-his protein (assay: ELISA, coated antigen, 0 nM antibody (blank)).

Row | Binder | OD450 nm [OD450 nm]
13 | B1 | 0.05
14 | B2 | 0.05
15 | B3 | 0.05

What follows are binders tested against T2, human MSLN-R3-his protein (assay: ELISA, coated antigen, 0.0001 nM antibody).

Row | Binder | OD450 nm [OD450 nm]
16 | B1 | 0.05
17 | B2 | 0.05
18 | B3 | 0.05

These binders were tested against T1, human MSLN-FL-his protein (assay: ELISA, coated antigen, 0.0001 nM antibody).

Row | Binder | OD450 nm [OD450 nm]
19 | B1 | 0.05
20 | B2 | 0.05
21 | B3 | 0.05

What follows are binders tested against T1, human MSLN-FL-his protein (assay: ELISA, coated antigen, 10 nM antibody).

Row | Binder | OD450 nm [OD450 nm]
22 | B1 | 2.69
23 | B2 | 2.61
24 | B3 | 2.63

These binders were tested against T1, human MSLN-FL-his protein (assay: ELISA, coated antigen, 0.01 nM antibody).

Row | Binder | OD450 nm [OD450 nm]
25 | B1 | 0.1
26 | B2 | 0.06
27 | B3 | 0.08

What follows are binders tested against T1, human MSLN-FL-his protein (assay: ELISA, coated antigen, 0 nM antibody (blank)).

Row | Binder | OD450 nm [OD450 nm]
28 | B1 | 0.05
29 | B2 | 0.05
30 | B3 | 0.05

What follows are binders tested against T2, human MSLN-R3-his protein (assay: ELISA, coated antigen, 0.1 nM antibody).

Row | Binder | OD450 nm [OD450 nm]
31 | B1 | 0.05
32 | B2 | 0.05
33 | B3 | 0.05

What follows are binders tested against T2, human MSLN-R3-his protein (assay: ELISA, coated antigen, 0.001 nM antibody).

Row | Binder | OD450 nm [OD450 nm]
34 | B1 | 0.05
35 | B2 | 0.05
36 | B3 | 0.05

These binders were tested against T3, human MSLN-R2-his protein (human, UniProt Q13421 391-486) (assay: ELISA, coated antigen, 0.2 nM antibody).
T3 construct: also called hMSLN-R2-his; not shown: histidine tag

Row | Binder | OD450 nm [OD450 nm]
37 | B1 | 0.06
38 | B2 | 2.27
39 | B3 | 0.07

Biological target: T4, human MSLN-R1-his protein (human, UniProt Q13421 296-390)
T4 construct: also called hMSLN-R1-his; not shown: histidine tag
T4 chain: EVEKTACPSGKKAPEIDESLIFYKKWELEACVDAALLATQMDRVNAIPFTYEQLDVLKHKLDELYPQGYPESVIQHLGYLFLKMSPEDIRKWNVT
Experiment: ELISA, coated antigen, 0.2 nM antibody

Row | Binder | OD450 nm [OD450 nm]
40 | B1 | 1.13
41 | B2 | 0.06
42 | B3 | 1.05

What follows are binders tested against T2, human MSLN-R3-his protein (assay: ELISA, coated antigen, 0.2 nM antibody).

Row | Binder | OD450 nm [OD450 nm]
43 | B1 | 0.05
44 | B2 | 0.05
45 | B3 | 0.05

The binders below were run against T1, human MSLN-FL-his protein (assay: ELISA, coated antigen, 0.2 nM antibody).

Row | Binder | OD450 nm [OD450 nm]
46 | B1 | 2.39
47 | B2 | 2.42
48 | B3 | 2.4

The binders below were run against T2, human MSLN-R3-his protein (assay: ELISA, coated antigen, 10 nM antibody).

Row | Binder | OD450 nm [OD450 nm]
49 | B1 | 0.05
50 | B2 | 0.05
51 | B3 | 0.05

The binders below were run against T3, human MSLN-R2-his protein (assay: ELISA, coated antigen, 20 nM antibody).
T3 sequence (Q13421 other isoform, or with tags, fused parts or gaps): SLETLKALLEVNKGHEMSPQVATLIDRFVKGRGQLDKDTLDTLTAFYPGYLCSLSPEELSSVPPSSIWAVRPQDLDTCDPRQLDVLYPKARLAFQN

Row | Binder | OD450 nm [OD450 nm]
52 | B1 | 0.12
53 | B2 | 2.68
54 | B3 | 0.17

Biological target: T4, human MSLN-R1-his protein
Experiment: ELISA, coated antigen, 20 nM antibody

Row | Binder | OD450 nm [OD450 nm]
55 | B1 | 2
56 | B2 | 0.14
57 | B3 | 1.69

What follows are binders tested against T2, human MSLN-R3-his protein (assay: ELISA, coated antigen, 20 nM antibody).

Row | Binder | OD450 nm [OD450 nm]
58 | B1 | 0.07
59 | B2 | 0.11
60 | B3 | 0.05

The binders below were run against T1, human MSLN-FL-his protein (assay: ELISA, coated antigen, 20 nM antibody).

Row | Binder | OD450 nm [OD450 nm]
61 | B1 | 2.75
62 | B2 | 2.87
63 | B3 | 2.62

What follows are binders tested against T1, human MSLN-FL-his protein (assay: ELISA, coated antigen, 0.1 nM antibody).

Row | Binder | OD450 nm [OD450 nm]
64 | B1 | 0.44
65 | B2 | 0.24
66 | B3 | 0.35

What follows are binders tested against T2, human MSLN-R3-his protein (assay: ELISA, coated antigen, 100 nM antibody).

Row | Binder | OD450 nm [OD450 nm]
67 | B1 | 0.05
68 | B2 | 0.05
69 | B3 | 0.05

The binders below were run against T1, human MSLN-FL-his protein (assay: ELISA, coated antigen, 0.001 nM antibody).

Row | Binder | OD450 nm [OD450 nm]
70 | B1 | 0.05
71 | B2 | 0.05
72 | B3 | 0.05
